Hit rate of the full screen: of about 310,000 compounds, about 2,200 (0.71%) showed an effect of 50% or more. Effects have a minus sign here. Some of the results follow.
Biological target: human ether-à-go-go-related gene (hERG) potassium channel (human, UniProt Q12809)
Test: primary screen, population patch clamp on CHO cells stably expressing hERG

human ether-à-go-go-related gene (hERG) potassium channel, sequence (Q12809 whole entry, looked up): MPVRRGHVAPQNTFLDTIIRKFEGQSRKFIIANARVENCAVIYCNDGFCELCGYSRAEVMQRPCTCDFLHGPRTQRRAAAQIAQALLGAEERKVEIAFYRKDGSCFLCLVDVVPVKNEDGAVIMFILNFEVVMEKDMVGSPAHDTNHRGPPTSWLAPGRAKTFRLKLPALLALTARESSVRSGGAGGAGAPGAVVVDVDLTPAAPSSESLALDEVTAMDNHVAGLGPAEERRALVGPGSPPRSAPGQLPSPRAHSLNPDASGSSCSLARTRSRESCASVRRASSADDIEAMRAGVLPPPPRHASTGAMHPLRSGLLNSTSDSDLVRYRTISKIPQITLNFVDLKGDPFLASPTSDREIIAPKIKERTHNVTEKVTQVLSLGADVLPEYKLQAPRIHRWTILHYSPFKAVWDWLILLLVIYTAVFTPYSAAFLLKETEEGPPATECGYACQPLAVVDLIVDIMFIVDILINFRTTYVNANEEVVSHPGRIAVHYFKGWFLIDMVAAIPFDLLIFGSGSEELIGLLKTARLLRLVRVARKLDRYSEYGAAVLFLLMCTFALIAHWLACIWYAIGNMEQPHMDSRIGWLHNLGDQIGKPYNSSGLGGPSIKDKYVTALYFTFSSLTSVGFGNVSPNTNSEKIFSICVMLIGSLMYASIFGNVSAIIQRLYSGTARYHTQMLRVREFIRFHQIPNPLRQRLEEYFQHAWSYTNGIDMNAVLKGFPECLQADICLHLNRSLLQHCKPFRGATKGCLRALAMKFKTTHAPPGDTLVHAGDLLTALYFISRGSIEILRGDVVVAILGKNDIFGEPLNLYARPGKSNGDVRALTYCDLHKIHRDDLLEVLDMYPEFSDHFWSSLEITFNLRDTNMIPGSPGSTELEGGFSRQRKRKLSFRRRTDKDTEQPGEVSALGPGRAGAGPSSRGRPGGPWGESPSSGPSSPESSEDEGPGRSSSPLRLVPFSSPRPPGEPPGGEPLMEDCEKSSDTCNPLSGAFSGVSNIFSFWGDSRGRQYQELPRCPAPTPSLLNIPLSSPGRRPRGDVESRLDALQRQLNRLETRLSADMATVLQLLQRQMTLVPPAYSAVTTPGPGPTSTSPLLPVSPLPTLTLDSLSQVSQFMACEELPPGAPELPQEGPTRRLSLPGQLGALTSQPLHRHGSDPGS

SMILES	hERG current change (%, negative = inhibition) at 1uM
Cc1cccc(NC(=S)N(CCCN2CCCC2)Cc2cccn2Cc2ccc(Cl)cc2)c1	-16.6%
CC(C)OCCCN1CC(=O)N2C(c3cccc([N+](=O)[O-])c3)c3[nH]c4ccccc4c3C[C@H]2C1=O (stereo partly shown)	8.95%
COc1cc2cc(C(=O)NCCc3ccccc3)[nH]c2cc1OC	13.9%
COCCSc1ccccc1C(=O)Nc1cc([N+](=O)[O-])ccc1OC	6.6%
CN(c1ccccc1)c1nc(N2CCCC2)nc(-n2ccnc2)n1	-1.96%
O=C1NC2(CCCCCC2)C(=O)N1Cc1ccccc1Br	12.6%
OCC[C@H]1C[C@H](O)[C@@H](O)[C@@]2(Cc3ccccc3O2)O1	15%
COc1ccc(NC(=O)CCOc2ccccc2C)cc1S(=O)(=O)N1CCCCC1	6.92%
CC(C)C(=O)N1C2CCC1CC(O)(c1ccc(F)cc1)C2 (stereo not shown)	18.6%
Cc1ccc(C)n1-c1nccc(-c2ccco2)n1	17.1%
COC(=O)c1ccc(C(=O)NC2CCCc3c2cnn3-c2cc(F)cc(F)c2)nc1 (stereo not shown)	8.06%
Cc1ccc2c(c1)-c1c(ssc1=S)C(C)(C)N2C(=O)c1ccco1	9.8%
Cc1nn(Cc2ccc(Cl)cc2)c(Cl)c1/C=N/NC(=O)c1cccnc1	-13.2%
CC1Cc2ccccc2N1CC(=O)Nc1ccc2c(c1)OCCCO2 (stereo not shown)	2.15%
O=C(NNC(=O)c1cc(-c2ccco2)nc2ccccc12)c1ccccc1	6.48%
CCOc1ccc(NC(=O)C2CCN(C(=O)N3CCOc4ccccc43)CC2)cc1	10.3%
CC(c1nnc(SCn2nnc3ccccc3c2=O)n1-c1ccc(Cl)cc1)N(C)C (stereo not shown)	11.9%
Cn1ccnc1C(O)c1cc(C(C)(C)C)c(O)c(C(C)(C)C)c1 (stereo not shown)	-5.25%
COc1ccc(NC(=O)N2CCN(C(=O)c3ccco3)CC2)c(OC)c1	-0.573%
O=C(C1COc2ccccc2O1)N1CCN(c2nc3ccccc3s2)CC1 (stereo not shown)	5.11%
Cc1c(C(=O)N2CCCCCC2)c(S(=O)(=O)Nc2ccccc2F)c(C)n1C	5.6%
CC(=O)Nc1cc(C(F)(F)F)ccc1N1CCOCC1	-8.28%
Cc1ccc(CC(=O)Nc2ccc(OC(F)F)c(Cl)c2)cc1C	0.524%

SMILES	hERG current change (%, negative = inhibition) at 1uM
Cc1nc(Nc2ccc(Br)cc2Br)c([N+](=O)[O-])c(=O)[nH]1	3.01%
CCCN1C2CCCC1CC(NC(=S)Nc1cc(C)ccc1C)C2 (stereo not shown)	8.55%
Cc1ccccc1C(=O)c1cn[nH]c1-c1ccccc1O	13.2%
O=C(CCC(=O)Nc1ccccc1)NNC(=O)COc1ccccc1	10.7%
CCOCCCN(C)C1CCN(S(=O)(=O)c2csc(C(N)=O)c2)CC1	6.61%
Cc1cc(C)cc(C(=O)NCCn2cc(SCC(=O)N3CCOCC3)c3ccccc32)c1	6.95%
CCOc1c(OC(C)=O)ccc(/C=C/c2ccc3cccc(OC(C)=O)c3n2)c1[N+](=O)[O-]	-0.604%
CCOC(=O)c1c(C)n(Cc2ccccc2)c2ccc(O)cc12	6.47%
O=C(/C=C/c1ccccc1)OCC(=O)N1CCN(c2ccccc2)CC1	10.5%
CN(c1ccccc1)S(=O)(=O)c1ccc(C(=O)Nc2ccncc2)cc1	1.78%
CCN(Cc1ccccc1)S(=O)(=O)CCNC(=O)c1ccccc1	-5.92%
Cc1ccc(Nc2nnc(SCC(=O)NCCN3C(=O)CSC3=O)s2)cc1	-5.47%
CCN1CCN(c2cc(C)c3cc(NC(=O)CCC(=O)Nc4ccc(OC)c(OC)c4)ccc3n2)CC1	14.7%
Cl.O=C(CN1CCCCCC1)N1c2ccccc2C=Cc2ccccc21	-2.92%
CCOc1cc(Br)ccc1S(=O)(=O)NCc1ccccc1	-14.9%
O=C(COC(=O)Cc1ccccc1[N+](=O)[O-])Nc1nnc(-c2ccccc2)o1	9.9%
Cc1c(C)c2c(OCC(=O)NCc3ccncc3)cc3c(c2oc1=O)CCC(C)(C)O3	14%
Cc1ccc(S(=O)(=O)CCCS(=O)(=O)c2ccc(C)cc2)cc1	0.115%
CN(C)C(=O)CSc1nc(-c2ccccc2)nc2c1CCCC2	20%
COc1cc(NS(=O)(=O)c2ccc3c(c2)oc(=O)n3C)cc(OC)c1OC	16%
COC(=O)c1ccc(C)c(NC(=O)CN(c2ccc3c(c2)OCO3)S(C)(=O)=O)c1	10.8%
COC(=O)c1ccc(CSCc2ccc(C(=O)OC)o2)o1	12.3%
CCCCN(CC)C(=O)c1oc2ccc(S(=O)(=O)N3CCCC3)cc2c1C	9.89%

SMILES	hERG current change (%, negative = inhibition) at 1uM
COc1ccc(CCNCC(=O)Nc2c(C)cc(C)cc2C)cc1OC.Cl	1.73%
Cc1nnc(NC(=O)CCSc2ccc(Cl)cc2)s1	1.84%
Cc1cccc(N2CCN(CC(O)COCc3cccs3)CC2)c1C (stereo not shown)	-63.9%
CC1CCN(C(=O)CSc2nc3c(cnn3-c3ccc(Cl)cc3)c(=O)[nH]2)CC1	5.16%
COc1cccc(-c2nn(-c3ccccc3)cc2CN(C)Cc2ccno2)c1	12.5%
COC(=O)c1ccc(CSc2nc3sc(C(=O)O)c(C)c3c(=O)[nH]2)cc1	11.5%
Cc1onc(-c2ccccc2Cl)c1C(=O)N1CCN=C1SCc1cccnc1	8.2%
COc1ccc2[nH]c(=S)[nH]c2c1	9.31%
COc1ccc(OC)c(CNC(=O)Cc2c(C(=O)O)[nH]c3ccccc23)c1	10.7%
O=C(NNc1c(Cl)cccc1Cl)c1ccno1	11%
COC(=O)c1cc(-c2ccc(OC)cc2)on1	6.16%
CC(C(=O)N(C)CC(=O)Nc1ccccc1C(F)(F)F)N1C(=O)c2ccccc2C1=O (stereo not shown)	1.08%
Cc1cc(C)nc(-n2nc(C)c(Br)c2Nc2ccc(Br)cc2)n1	8.85%
CC(C)(C)c1ccc(/C=N/NC(=S)NC2CCCCC2)cc1	13.1%
CC(C)(C)C(=O)CSc1nc2ccccc2o1	4.06%
Cc1ccc(-c2nc(-c3ccncc3)no2)cc1Cl	14.4%
CCOc1cc(C(=O)N/N=C/C2CC=CCC2)cc(OCC)c1OCC (stereo not shown)	-3.74%
CCN1CCN(C(=O)c2ccc(CSc3ccc(C)cc3)cc2)CC1	-19.7%
CCC(=NCc1ccco1)c1c(O)n(-c2ccc(Cl)cc2)c(=O)[nH]c1=O	5.6%
O=C(O)CCC(=O)Nc1ccc(S(=O)(=O)Nc2nccs2)cc1	-0.895%
Cc1ccc(CNC(=O)CN(C)S(=O)(=O)c2cccc3cccnc23)cc1	12.3%
Cc1[nH]c2ccc(C(=O)OCC(=O)NC3(C#N)CCCCC3)cc2c1C	-1.84%
O=C(NCCc1ccccc1)c1ccccc1NS(=O)(=O)N1CCCC1	7.47%

SMILES	hERG current change (%, negative = inhibition) at 1uM
Cc1ccc(/C=N/NC(=O)CSc2nc3ccccc3s2)o1	6.77%
COc1ccc(C(=O)NC2CCCCCC2)cc1S(=O)(=O)N1CCOCC1	3.05%
c1ccc2c(CCNc3ncnc4nc[nH]c34)c[nH]c2c1	11.5%
O=C(CC1SCCNC1=O)Nc1cccc(Cl)c1 (stereo not shown)	14.6%
O=C(NCC1CCCO1)c1cc2c(s1)CS(=O)(=O)C2 (stereo not shown)	9.63%
C=CCOc1cccc(CNn2cn[nH]c2=S)c1	5.04%
COc1cc2c(C#CCCCO)c(-c3ccc(C#N)cc3)oc(=O)c2cc1OC	8.8%
CCCCn1nc(C(=O)NC2=NCCS2)c2ccccc2c1=O	2.01%
Cc1ccc(C(=O)c2ccccc2C(=O)O)cc1C	6.95%
COc1cccc(-c2nc(CS(=O)(=O)CC(=O)NCCc3ccc(C)cc3)c(C)o2)c1	-0.095%
O=C(NCCNC(=O)C(F)(F)F)c1ccncc1	-1.68%
CCC(=NCc1ccco1)c1c(O)[nH]c(=O)[nH]c1=O	6.41%
Nc1ccc2nc3n(c(=O)c2c1)CCC3	4.9%
Brc1ccccc1C1=Nn2c(nnc2-c2ccco2)SC1	9.81%
CCCn1c(SCC(=O)NCc2ccc(C)cc2)n[nH]c1=O	15.5%
COc1ccc(-c2noc3c2-c2nc(-c4c(F)cccc4F)sc2CC3)cc1	11.6%
COc1cccc(Nc2nnc(SCC(=O)Nc3sccc3C(N)=O)s2)c1	7.51%
N/C(=N\[N+](=O)[O-])N1CCN(C(=O)c2ccccc2)CC1	9.01%
C=CCn1c(C)cc(C(=O)COC(=O)COc2ccccc2C#N)c1C	8.91%
CCOC(=O)N1CCN(C(=O)CCS(=O)(=O)c2cc3c(cc2Cl)NC(=O)CO3)CC1	-1.95%
COc1ccc(CN2CCN(C(=O)CC(C)C)CC2)cc1	20.2%
CCCS(=O)(=O)c1c(S(=O)(=O)CCC)c2ccccn2c1C(=O)OC	1.95%
